Experimental data published in paper PMC10862077 (Frontiers in Immunology, 2024).

Key:
dog albumin [1] = target: T1, dog albumin (Canis lupus familiaris, UniProt P49822, biotin in the BLI with FcRn, else none); test: ELISA; […], pH 7.4); room temperature; […]; conditions: both partners purified
dog albumin [2] = target: T1, dog albumin; conditions: both partners purified

B1: A2L (VHH)
VHH: QVQLQQSGGGLVQAGGSLRLSCAASGRFFSRQVMGWFRQAPGKDREFVGVISWDNGVTFYSDSVKGRFTMSREIAKKTVHLQMNSLKPEDTAVYYCAAGNALHSRYYSPSKYDYWGPGTQVTVSS
notes: also called sdAb A2
B1: binds (dog albumin [1]).

B2: A6L (VHH)
VHH: QVQLQESGGRLVQAEDSLRLSCAASGRTFVSYDMGWFRQAPGKEREFVAAINWRGYTTDYVDSVKGRFFISRDIAKSTVYLQMNNLKPEDTAVYYCAARQMSGSSRYSPPGRVGYDFWGQGTQVTVSS
notes: also called sdAb A6
B2 showed a Kd (dog albumin [2]) of 3.2 nM and a koff (dog albumin [2]) of 0.00226 s⁻¹.

B3: A12L (VHH)
VHH: QVQLQESGGGLVQAGGSLRLSCAASGRTFSYYPMAWFRQAPGQEREFVAAIIGADTTYYADSLKGRFTISRDNAKNMVYLQMNSLKPEDTAVYYCAARNTYWSDVYYREGQYTNWGQGTQVTVSS
notes: also called sdAb A12
In the case of B3, the Kd (dog albumin [2]) is reported as 271 nM and the koff (dog albumin [2]) is reported as 0.0125 s⁻¹.

B4: A16L (VHH)
VHH: QVQLQESGGGVVQAGGSLRLSCAASGRTVSSSAMGWFRLAPGKEREFVVGISRSGGSIFYADSVKGRFTISRKNAKNTVDLQMNSLKPEDTAVYYCAAGYRPGYGDYGRVFYREDEYDDWGQGTQVTVSS
notes: also called sdAb A16
Work on B4 yielded a Kd (dog albumin [2]) of 13 nM and a koff (dog albumin [2]) of 0.0051 s⁻¹.

B5: A7L (VHH)
VHH: QVQLQQSGGGLVQAGDSLRLSCAASGRAFNYYTMGWFRQAPGKEREFVAKIYWDGGSTIYADSVKGRFTISIDNAKNTVYLQMNSLKPEDTAVYYCAADPSFYPFRPKYWGQGTQVTVSS
notes: also called sdAb A7
B5: no binding (tested: 1 µg/ml sdAb) (dog albumin [1]).
